Measurements published in patent US11365205B2 (Aurigene Discovery Technologies Limited, priority 2018, dated 2022).

Biological target: PRMT5/MEP50 Complex (Homo sapiens (Human), UniProt O14744)
Assay: PRMT5 inhibition based on TR-FRET assay
Type: biochemical
Conditions: 32 nM PRMT5:MEP50, 50 nM Histone-H4 peptide, 1 μM SAM
Source text: PRMT5 Inhibition Based on TR-FRET Assay:
Protein arginine methyltransferase 5 (PRMT5) is a type II arginine methyltransferase that catalyze mono- and symmetric demethylation on arginine residues of histone or non-histone proteins in presence of S-adenosylmethionine (AdoMet or SAM) a cofactor responsible for donating the methyl group. PRMT5 is reported to be overexpressed in several human cancers. To identify compounds that inhibit the PRMT5 and decrease its activity, a TR-FRET based assay has been established. Time-resolved fluorescence resonance energy transfer (TR-FRET) HTS assays are homogeneous proximity assays where the interaction of two dye-labeled binding partners is detected by the energy transfer between a donor and an acceptor dye and the subsequent light emission by the acceptor dye. PRMT5 catalyzes Histone H4 peptide which is biotin tagged to the Lysine amino acid at carboxyl end, in presence of S-adenosyl-1-methionine (SAM) to methylate the peptide. The antibody specific to mono methylated H4 peptide (H4R3) with Ig conjugate binds to the methylated peptide, indirectly binding to the Europium lanthanide. […]
The compound dilutions were prepared as 7.5% DMSO stock solutions in assay buffer. […] The plates were then read on Victor-3 with Excitation at 340 nm and Emissions collected at 615 and 665 nm in TR-FRET protocol. […]

Chain of UniProt O14744 (O14744 whole entry): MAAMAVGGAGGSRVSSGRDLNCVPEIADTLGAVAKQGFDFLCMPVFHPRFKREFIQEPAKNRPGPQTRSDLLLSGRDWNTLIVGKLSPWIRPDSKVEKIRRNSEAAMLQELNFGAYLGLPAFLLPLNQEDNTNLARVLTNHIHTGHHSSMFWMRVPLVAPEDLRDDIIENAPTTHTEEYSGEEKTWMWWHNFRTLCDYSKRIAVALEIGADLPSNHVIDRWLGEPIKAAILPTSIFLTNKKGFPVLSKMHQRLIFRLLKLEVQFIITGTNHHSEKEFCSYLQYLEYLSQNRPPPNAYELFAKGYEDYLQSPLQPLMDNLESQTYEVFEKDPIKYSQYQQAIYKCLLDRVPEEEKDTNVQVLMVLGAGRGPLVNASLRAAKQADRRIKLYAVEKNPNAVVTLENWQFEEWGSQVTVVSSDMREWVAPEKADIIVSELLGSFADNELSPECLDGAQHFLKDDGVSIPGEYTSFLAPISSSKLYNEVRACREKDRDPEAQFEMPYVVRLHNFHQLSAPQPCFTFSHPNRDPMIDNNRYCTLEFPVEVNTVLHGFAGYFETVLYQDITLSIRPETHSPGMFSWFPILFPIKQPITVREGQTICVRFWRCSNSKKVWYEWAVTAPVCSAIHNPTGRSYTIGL
Chain of UniProt O14744 (Q9BQA1 whole entry partner): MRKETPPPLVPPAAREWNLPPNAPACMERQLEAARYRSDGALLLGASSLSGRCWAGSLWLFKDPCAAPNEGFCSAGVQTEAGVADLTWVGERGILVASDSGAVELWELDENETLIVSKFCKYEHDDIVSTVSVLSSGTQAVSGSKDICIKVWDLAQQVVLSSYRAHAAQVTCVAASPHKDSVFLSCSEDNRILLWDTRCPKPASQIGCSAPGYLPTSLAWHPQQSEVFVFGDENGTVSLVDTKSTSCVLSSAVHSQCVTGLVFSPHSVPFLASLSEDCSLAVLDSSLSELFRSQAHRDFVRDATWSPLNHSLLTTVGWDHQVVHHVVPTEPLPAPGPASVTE

SMILES | IC50 [µM]
Cn1cc(CN2C(=O)N(CC(O)CN3CCc4ccccc4C3)C(C)(C)C2=O)ccc1=O (centres unmarked) [Example 78, 1-(3-(3,4-Dihydroisoquinolin-2(1H)-yl)-2-hydroxypropyl)-5,5-dimethyl-3-((1-methyl-6-oxo-1,6-dihydropyridin-3-yl)methyl)imidazolidine-2,4-dione] | 0.98
Cc1ccc(CN2CC(c3ccccc3)N(CC(O)CN3CCc4ccccc4C3)C2=O)cc1 (centres unmarked) [Example 81, 3-(3-(3,4-dihydroisoquinolin-2(1H)-yl)-2-hydroxypropyl)-1-(4-methylbenzyl)-4-phenylimidazolidin-2-one] | 0.61
